The chains are these.
B1: LINE1-full (parent)
chain: UACGUAGGUGGUUUUCCCCUGAUAGUGCUAAGGGGGCCUGGAAGUUUGGACUGGGCAGAGCUCAACACAGCGUGGCAAAGUGGCUGUGGCUAGACUGCCUCUCUGGAUUCCUCGUCACUCAGCAGGGCAUCUCUGAGAGAAAUGCC

Read counts are not given, so values of variants with three or more changes are uncertain.

Results on twelve variants are retold here after the RNAGym collection of RNA variant scans (doi:10.7554/elife.90254).

In this data set the parent is B1. Briefly: self-cleavage, relative activity (ratio to wild type); higher = more cleavage; in vitro, sequencing; the parent is a self-cleaving ribozyme.
As for A129G U130C A140G, the self-cleavage amounted to 1.74.

Turning to U130C C131A U143G, the self-cleavage amounted to 1.2. For the variant U132C U134C A142G, the self-cleavage stood at 1.58. For A129U U130A A136U G139U the value was 0.16. In the case of A129U U134C A136U it was 1.39. In the case of A129U U134C A141G it was 1.41. Turning to U132C A141G U143G, the self-cleavage was found to be 0.78. On to A129U A140G U143C, for which the self-cleavage was 1.53. On to A129U A140G U143G, for which the self-cleavage is 0.97. Regarding A129G U134A A138U, the self-cleavage worked out at 1.55. As to C128U A129G A141G, the self-cleavage stood at 0.67. For U132C A138U A141G U143C the value was 0.
